Assay results from PubChem BioAssay AID488969 (Vanderbilt High Throughput Screening Facility, 2010).
The full ranking holds about 110,000 compounds; the median of “z-score” is about -0.1, and the highest 2% start at about 2. The list shows a part of the results. Activity calls are given as the source filed them.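 How the source made its calls: active means z-score in the third read window above 3 or below -3; inactive means the rest.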

Biological target: Metabotropic glutamate receptor 8 (Rattus norvegicus) (UniProt P70579)
UniProt P70579, sequence (P70579 whole entry, looked up): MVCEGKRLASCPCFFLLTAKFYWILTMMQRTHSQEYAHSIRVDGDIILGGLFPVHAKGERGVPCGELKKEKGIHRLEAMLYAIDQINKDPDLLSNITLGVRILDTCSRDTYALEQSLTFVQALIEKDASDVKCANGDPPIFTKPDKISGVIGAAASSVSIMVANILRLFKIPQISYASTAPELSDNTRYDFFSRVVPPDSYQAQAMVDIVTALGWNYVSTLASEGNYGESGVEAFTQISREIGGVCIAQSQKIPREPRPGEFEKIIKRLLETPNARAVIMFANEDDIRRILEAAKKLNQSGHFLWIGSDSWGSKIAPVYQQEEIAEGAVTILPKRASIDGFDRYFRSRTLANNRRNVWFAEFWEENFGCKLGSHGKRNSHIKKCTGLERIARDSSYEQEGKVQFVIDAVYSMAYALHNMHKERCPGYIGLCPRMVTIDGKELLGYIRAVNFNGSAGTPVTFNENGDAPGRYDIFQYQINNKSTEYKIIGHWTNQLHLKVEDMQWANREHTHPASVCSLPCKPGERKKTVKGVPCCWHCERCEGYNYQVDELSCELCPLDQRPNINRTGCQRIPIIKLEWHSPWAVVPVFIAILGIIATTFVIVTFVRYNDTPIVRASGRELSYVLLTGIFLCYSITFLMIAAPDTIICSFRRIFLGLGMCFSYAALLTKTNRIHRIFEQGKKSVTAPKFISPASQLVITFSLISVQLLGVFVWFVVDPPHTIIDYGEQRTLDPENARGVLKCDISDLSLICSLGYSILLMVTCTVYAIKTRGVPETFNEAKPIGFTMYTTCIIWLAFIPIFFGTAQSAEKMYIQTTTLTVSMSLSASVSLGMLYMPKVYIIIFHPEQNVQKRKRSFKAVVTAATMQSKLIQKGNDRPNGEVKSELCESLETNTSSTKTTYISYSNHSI
Experiment: rat mGluR8 modulators via GIRK flux, primary screen, cell-based, thallium flux, HTS (AID 488969)
Details: HEK293 rat mGluR8, GIRK (G protein-gated inwardly rectifying potassium channel) thallium flux, FluoZin2; at 10 µM; stronger effect = higher value; submaximal glutamate (EC20) added with thallium

Row | SMILES | z-score
1 | CC1(C)Cc2cccc(OCC(=O)Nc3nccs3)c2O1 | -0.16
2 | COc1ccc(N=C2NN=C(c3ccc4c(c3)OCCO4)CS2)cc1 | 0.00257
3 | O=C(Nc1cccc(Cl)c1)c1ccc(Cn2cc(Cl)cn2)cc1 | -0.352
4 | COc1ccc(CN(C(=O)Cc2c[nH]c3ccccc23)C(C(=O)NC2CCCCC2)c2ccc(C)o2)cc1 (stereo not given) | -0.212
5 | COC(=O)C1=C(C)NC2=C(C1c1ccc(O)cc1)S(=O)(=O)c1ccccc12 (stereo not given) | -0.538
6 | CC(Oc1ccc(Cl)cc1)c1ccnn1S(=O)(=O)c1ccccc1 (stereo not given) | -0.504
7 | CC1=C[C@H]2Cc3cc(C)cc(C)c3S(=O)(=O)[C@@H]2C=C1 | -0.241
8 | COc1ccc(NS(=O)(=O)c2cc(NC(=O)CNC(=O)c3ccc(C)s3)ccc2Cl)cc1 | 0.551
9 | N#Cc1nc(Cc2cccc3ccccc23)oc1NCc1ccco1 | 0.86
10 | CCN(CC)C(=O)C(=O)N/N=C/c1ccc(C(=O)OC)cc1 | -0.309
11 | CCOC(=O)c1ccc(NC(=O)COc2ccc(S(=O)(=O)NC(C)C)cc2)cc1 | -0.075
12 | CN(C(=O)/C=C/c1ccccc1)C1CCS(=O)(=O)C1 (stereo not given) | -0.119
13 | COn1cnnc1-c1ccccc1 | -0.212
14 | Cc1nc2ccc(S(=O)(=O)NCC(=O)N3CCCC(C)C3)cc2s1 (stereo not given) | -0.296
15 | c1ccc2nc(-c3ccc(N4CCOCC4)cc3)ccc2c1 | 0.0936
16 | O=C(OCC(=O)N1CCN(C(=O)c2ccco2)CC1)c1cc(-c2ccco2)nc2ccccc12 | -1.33
17 | CCC(=O)n1nc(-c2ccccc2)nc1SCC(=O)Nc1ccc(C)cc1 | 0.0847
18 | CC(=O)Nc1nonc1-c1nc2ccccc2n1CCC(C)C | 0.00782
19 | Cc1cccc2nc(C(F)(F)F)nc(=O)n12 | -0.0106
20 | COc1ccccc1NC(=O)CN(Cc1ccco1)C(=O)c1cccs1 | 0.85
21 | CCOC(=O)Cc1cc(=O)[nH]c(/N=C(/NC(=O)c2ccccc2)Nc2ccccc2C(F)(F)F)n1 | -0.154
22 | CC(=O)Nc1ccc(Oc2ncccn2)cc1 | active: 7.84
23 | Cc1ccc(C(C(=O)Nc2ccc3c(c2)OCO3)N(C)C(=O)/C=C\c2ccc3c(c2)OCO3)cc1 (stereo not given) | -0.403
24 | Cn1c(CC(=O)NCCO)c(Sc2ccccc2)c2ccccc21 | -0.429

Row | SMILES | z-score
25 | CC(C)NC(=S)Nc1cccc2cnccc12 | -0.271
26 | Cc1cc(C(F)(F)F)nc(Nc2nc(C)c3ccccc3n2)n1 | -0.0567
27 | O=C(c1ccco1)N1CCN(c2ncnc3c2[nH]c2ccccc23)CC1 | 0.737
28 | CCOC(=O)C1=NN(C(=O)c2ccc(C)cc2)C(O)(c2ccc(Cl)cc2)C1 (stereo not given) | active: 10.4
29 | CCOC(=O)N1CCN(C(=O)C2CCN(S(=O)(=O)c3ccccc3)CC2)CC1 | -0.151
30 | O=C1C(Cl)=C(N2CCOCC2)C(=O)N1c1ccccc1 | 0.0319
31 | COc1ccc(C(=O)NC(=S)NNC(=O)c2c(-c3ccccc3)noc2C)cc1 | 0.757
32 | Cc1ccc(S(=O)(=O)NCCC(=O)Nc2ccc(C)cc2C(=O)c2ccccc2)cc1 | -0.4
33 | O=c1[nH]ncn1-c1ccccc1C(F)(F)F | 0.261
34 | O=C(NCC(=O)N(Cc1cccs1)C(C(=O)NC1CCCCC1)c1ccncc1)c1ccco1 (stereo not given) | -0.208
35 | O=c1cc(-c2ccccc2)[nH]c2nc3ccccc3n12 | -0.423
36 | CC(NC(=O)c1ccc(Br)s1)C1CCCO1 (stereo not given) | -0.504
37 | COc1ccccc1NC(=O)CSc1nc(O)c(Cc2ccccc2)c(=O)[nH]1 | 0.381
38 | CCOC(=O)CSc1nnc(CNC(=O)c2ccc(OC)c(OC)c2)n1C | -0.459
39 | O=C(ON=C1CCN(S(=O)(=O)c2ccccc2)CC1)c1ccccc1 | -0.044
40 | N#Cc1c(NC(=O)C2CC(c3ccccc3Cl)=NO2)sc2c1CCC2 (stereo not given) | -0.539
41 | O=C(c1ccc(Br)o1)N1CCN=C1SCc1cccc(F)c1 | -0.798
42 | O=C(NCc1ccc(F)cc1)c1cc(S(=O)(=O)N2CCOCC2)ccc1F | 0.0221
43 | CCOC(=O)c1c(NC(=O)COc2cccc3c2CCN(Cc2ccc(F)cc2)C3=O)sc2c1CCC2 | -0.11
44 | CN(Cc1ccccc1)C(=O)CCNC(=O)Cn1cnc2ccccc2c1=O | 1.04
45 | O=c1c(-c2nc3ccccc3s2)cccn1Cc1ccc(Cl)c(Cl)c1 | 0.0207
46 | CC(C)CCn1c(SCC(N)=O)nc2c1c(=O)n(C)c(=O)n2C | -0.0328
47 | Nc1nnc(SCC(=O)N2CCN(c3cccc(Cl)c3)CC2)n1-c1ccccc1 | -0.234
48 | Oc1ccccc1N=Cc1ccc[nH]1 | 0.222

Row | SMILES | z-score
49 | Cc1ccc(N2C(=O)c3ccccc3C2Nc2ccccc2F)nc1 (stereo not given) | -1.12
50 | CCOc1ccccc1/C=N/Nc1ccccc1[N+](=O)[O-] | -0.0673
51 | CCC(SC1=Nc2ccccc2C2=NC(CC(C)C)C(=O)N12)C(=O)Nc1ccc2c(c1)OCO2 (stereo not given) | -0.407
52 | CCN(CC)c1nc2ccccc2n2cnnc12 | -0.635
53 | O=C(O)CCCCCN1C(=O)C2CCCCC2C1=O (stereo not given) | -0.176
54 | O=C(c1cnc(-c2ccc(Cl)cc2)s1)c1ccc(Cl)cc1Cl | -0.046
55 | COc1ccc(C2C=C(c3ccc(C)c(C)c3)Nc3ncnn32)c(OC)c1OC (stereo not given) | -0.205
56 | CC(C)(C)C1=NN(C(=O)c2ccccc2)C(O)(C(C)(C)C)C1 (stereo not given) | -0.79
57 | CC(C)[C@H](NC(=O)NCCc1ccc(F)cc1)C(=O)O | -0.139
58 | CC(NC(=O)Cn1cnc2c1c(=O)n(C)c(=O)n2C)c1ccccc1 (stereo not given) | -0.024
59 | Brc1ccccc1-c1nnc2sc(Cc3ccccc3)nn12 | -2.32
60 | C=CCOc1c(CNc2ccc(C(=O)O)cc2)cccc1OCC | -0.161
61 | COc1ccc(S(=O)(=O)NC(C)C(=O)Nc2ccccc2C(F)(F)F)cc1 (stereo not given) | -0.501
62 | COc1ccccc1-n1c(SCC(=O)Nc2ccc(C)cc2)nc(O)cc1=O | -0.181
63 | O=C(NCCN=C1NS(=O)(=O)c2ccccc21)c1ccco1 | -0.129
64 | CC(=O)OCCNc1cc(Sc2nc3ccccc3[nH]2)c2nonc2c1[N+](=O)[O-] | -0.363
65 | Nc1c(C(O)(C(F)(F)F)C(F)(F)F)cc(C(O)(C(F)(F)F)C(F)(F)F)c2ccccc12 | 0.066
66 | Cc1cc(C)cc(N(CC(=O)N2CCC(C)CC2)S(=O)(=O)c2ccccc2)c1 | -0.168
67 | CC(C)c1ccc(NC(=O)c2ccc(Br)o2)cc1 | -1.18
68 | Cc1ccc(OCc2nnc(SCC(=O)c3cccs3)n2-c2ccccc2)cc1C | 0.316
69 | Nc1nnc(SCC(=O)c2ccccc2)s1 | -0.265
70 | Cc1nn(C)c(C)c1/C=C/C(=O)c1cccs1 | -0.104
